# According to PubChem BioAssay AID493208 (National Center for Advancing Translational Sciences (NCATS), 2011):
# In all, about 44,000 compounds went through this assay and about 340 (0.77%) were called active. Not shown: some 5% with an inconclusive outcome. Calls come from the whole dose curve; as a rule, active = well fitted inhibition curve with a large enough effect; inconclusive = small, poorly fitted or top-dose-only effect; inactive = flat fitted curve, though single readings scatter. This is one part of the list.
# Experiment: Acumen qHTS Assay for Inhibitors of the mTORC1 Signaling Pathway in MEF (Tsc2-/-, p53-/-) Cells: Sytravon; note: nearly all actives have a fitted effect of over 50% in size;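 for activity change, negative = inhibition: plate controls were DMSO for no effect and rapamycin for full effect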
# Conditions: phospho-rpS6 immunofluorescence/PI, 24 h; series mostly up to 38.3 µM; activity change, negative = inhibition: at the top concentration
# Summary of the method: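 Immunofluorescence of rpS6 phosphorylation in Tsc2-/-, p53-/- MEFs after 24 h compound exposure, normalized to propidium iodide signal. Activity is expressed as % positive cells, thresholded with 7.5 nM rapamycin.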
# Potency is the fitted concentration of half-maximal effect.
SMILES,"activity change, negative = inhibition",Potency
O=C(Cn1c(=O)ccc2cc(S(=O)(=O)N3CCCC3)ccc21)NCc1ccc(Cl)cc1,inactive: -0.48%,–
CCOC(=O)c1cc(S(=O)(=O)NCc2ccccc2)[nH]n1,inactive: -1.37%,–
CCC(CO)NC(=O)C(=O)Nc1c2c(nn1-c1ccc(F)cc1)CSC2 (centres undefined),inactive: -12.8%,–
COc1ccccc1CNS(=O)(=O)c1c(C)nc2scc(C)n2c1=O,inactive: 0.389%,–
Cc1cc(Nc2ccc(C)c(Cl)c2)n2nc(Cc3ccccc3)nc2n1,inactive: 1.85%,–
CCOc1ccc(NC(=O)c2c(Nc3ccc(OC)cc3OC)sc(C(=O)c3ccc(Cl)cc3)c2N)cc1,inactive: -2.59%,–
COCCn1c(=O)[nH]c2cc(C(=O)NCc3ccccc3Cl)ccc2c1=O,inactive: -3.66%,–
CCOc1ccc(NC(=O)CSc2nc(-c3ccc(OC)cc3)nc3c2Cc2c(CO)cnc(C)c2O3)cc1,inactive: 0.246%,–
CCOc1ccc(CCNC(=O)CCc2cn(Cc3ccccc3F)c3ccccc23)cc1OCC,inactive: -13.5%,–
Cc1cccc(CNC(=O)c2cnc3c(-c4cccc(C)c4)c(C)nn3c2C)c1,inactive: -0.504%,–
CCCCC(=O)N1c2ccccc2C(C)(c2ccccc2)CC1(C)C (centres undefined),inactive: -0.189%,–
COc1ccc(OC)c(CCNc2ncnc3onc(-c4ccc(Cl)cc4)c23)c1,inactive: -19.4%,–
Cn1c(=O)c2cc(S(=O)(=O)NC(Cc3ccccc3)C(=O)Nc3ccc(F)cc3)ccc2n(C)c1=O (centres undefined),inactive: -2.03%,–
CC(=O)N1CCCc2cc(S(=O)(=O)N(C)CC(=O)Nc3cccc(Cl)c3C)ccc21,inactive: -0.231%,–
CCc1ccc(S(=O)(=O)NCCc2cn3ccsc3n2)cc1,inactive: -17.3%,–
O=C(c1ccccc1Cl)n1nc(-c2ccco2)nc1NCc1cccs1,inactive: 1.05%,–
CCN(CC)c1ccc(NC(=O)COCc2cc(-c3ccc4c(c3)OCO4)on2)c(C)c1,inactive: -0.165%,–
Cc1ccccc1Cn1c2ccccc2c2cnn(CC(=O)NCc3cccc(Cl)c3)c(=O)c21,inactive: -3.08%,–
CCOC(=O)c1ccc(CN(Cc2ccc(F)cc2)S(=O)(=O)c2ccc(F)c(C(=O)Nc3cc(Cl)ccc3OC)c2)cc1,inactive: 7.28%,–
Cc1ccc(N2CCN(C(=O)c3c(C)oc4ncn(C)c(=O)c34)CC2)c(C)c1,inactive: 0.387%,–
Cc1ccc(NC(=O)CSc2nc3c(oc4ccccc43)c(=O)n2Cc2ccco2)cc1F,inactive: 4.9%,–
Cc1nc(-n2nc(C)c(Cc3ccc(Cl)cc3)c2C)sc1C(=O)N1CCC(C)CC1,inactive: -0.327%,–
CC(=O)N1CCCc2cc(S(=O)(=O)N(C)CC(=O)Nc3ccc(C(C)C)cc3)ccc21,inactive: -8.58%,–
COc1ccc(CNC(=O)c2cc3c(=O)n(Cc4ccco4)ccc3nc2C)c(OC)c1,inactive: 0.4%,–

SMILES,"activity change, negative = inhibition",Potency
CC(C)c1ccc(OCC(=O)Nc2ccc(S(=O)(=O)Nc3ncccn3)cc2)cc1,inactive: 17%,–
Cn1cc(-c2cc3n(n2)CCC(=O)N3CCCC(=O)Nc2ccc(Cl)cc2)c2ccccc21,inactive: -3.15%,–
CC(C)OC(=O)c1c(NC(=O)c2cccc(C(F)(F)F)c2)sc2c1CCCC2,inactive: -13.2%,–
O=C1CC(c2ccccc2)Sc2ccccc2N1Cc1ccccc1F (centres undefined),inactive: -0.7%,–
COc1ccc(NC(=O)Cn2ccn(-c3ccc(F)c(F)c3)c(=O)c2=O)cc1Cl,inactive: -1.57%,–
COc1cccc(CNC(=O)c2sc3nc[nH]c(=O)c3c2C)c1,inactive: 1.66%,–
COc1ccc(CNC(=O)CCC2N=C3c4ccccc4N=C(SCC(=O)NCCc4ccc(OC)c(OC)c4)N3C2=O)cc1 (centres undefined),inactive: -1.62%,–
COc1ccccc1CNC(=O)C(=O)NCC(c1ccco1)S(=O)(=O)c1ccc(F)cc1 (centres undefined),inactive: -0.151%,–
COc1ccc(C)c2sc(NC(=O)c3ccc(S(=O)(=O)N4CCOCC4)cc3)nc12,inactive: -0.609%,–
COc1cccc(N2CCN(C(=O)c3cnc4c(-c5ccc(F)cc5)c(C)nn4c3C)CC2)c1,inactive: -14.3%,–
COc1ccc(C(=O)Oc2c(Sc3ccccc3)c(C)nn2-c2ccccc2)c(OC)c1,inactive: 11%,–
Cc1cccc(C)c1OCCn1c(CCNC(=O)C2CCCCC2)nc2ccccc21,inactive: 2.5%,–
CCOc1ccc(NC(=O)c2cc(-c3ccc(C)c(F)c3)on2)c([N+](=O)[O-])c1,inactive: -6.25%,–
COc1ccc(C2Nc3ccccc3-c3cc(C)nn32)c(OC)c1 (centres undefined),inactive: -2.51%,–
COC(=O)c1ccccc1NS(=O)(=O)c1cc2c3c(c1)CC(=O)N3CCC2,inactive: 2.21%,–
CCN(CC)S(=O)(=O)c1ccc2c(c1)N(CC(=O)Nc1ccc(Cl)cc1)C(=O)C1CCCN21 (centres undefined),inactive: -1.23%,–
CC(C)(C)c1ccc(C(=O)NCC(c2ccco2)S(=O)(=O)c2ccccc2)cc1 (centres undefined),inactive: 2.19%,–
COc1ccc(-c2nc3ccccc3n2Cc2ccccc2)cc1,inactive: 1.54%,–
CCCCCOc1ccc(NC(=O)Cn2c(-c3nonc3N)nc3ccccc32)cc1,inactive: -3.38%,–
Cc1c(Cl)ccc2sc(N3CCN(C(=O)CCS(=O)(=O)c4ccc(F)cc4)CC3)nc12,inactive: -18.5%,–
COc1cccc(C(=O)Nc2nc(-c3nnn(-c4ccccc4C(F)(F)F)c3C)ns2)c1,inactive: 8.26%,–
CCOc1ccc2nc(N(Cc3cccnc3)C(=O)c3cccs3)sc2c1,inactive: -5.41%,–
COc1cccc(-c2nc(Cn3c(=O)cc(C)c4c(C)nn(-c5ccccc5)c43)c(C)o2)c1OC,inactive: 0.342%,–
CC1=C(C(=O)Nc2ccccc2)C(c2ccccn2)n2nc(SCc3ccccc3)nc2N1 (centres undefined),inactive: 5.63%,–

SMILES,"activity change, negative = inhibition",Potency
Cc1ccc2c(c1)C(c1ccccc1)N(C(=O)COc1ccc(Cl)cc1Cl)CC(=O)N2 (centres undefined),inactive: 0%,–
Cc1ccc(-n2nc(C)c3c(C(=O)Nc4ccccc4C(F)(F)F)cc(C)nc32)cc1,inactive: 6.16%,–
CCCCN1C(=O)C(O)(CC(=O)c2ccc(CC)cc2)c2cc(Br)ccc21 (centres undefined),–,active: 16.5 µM
CCCN(C(=O)c1cc2c(=O)oc3ccc(C)cc3c2s1)c1ccc(OCC)cc1,inactive: -1.29%,–
COc1cccc(CNC(=O)Cn2nc(C)n3c(cc4cc(C)ccc43)c2=O)c1OC,inactive: -11.2%,–
CCSc1nc(-c2cccc(Cl)c2)nc2c1Cc1c(CO)cnc(C)c1O2,inactive: 1.69%,–
Cc1ccc(NC(=O)n2ncc3c(C)cccc32)c(C)c1,inactive: 3.11%,–
O=C(CSc1nnc2scc(-c3ccc(Cl)cc3)n12)Nc1ccc(F)cc1,inactive: -5.93%,–
COc1ccccc1C(=O)NC1(C(F)(F)F)NC(=O)N(CCc2ccccc2)C1=O (centres undefined),inactive: -4.81%,–
CCc1nn(CC(=O)N2CCN(c3cccc(C)c3)C(C)C2)c(=O)c2cc3sccc3n12 (centres undefined),inactive: -3.51%,–
CCOCCCNC(=O)C(c1ccc(C)cc1)N(Cc1ccc2c(c1)OCO2)C(=O)c1ccccc1O (centres undefined),inactive: 0.116%,–
Cc1cc(C)c(NC(=O)CSc2nc(=O)n(Cc3ccncc3)c3c2CCC3)c(C)c1,inactive: -0.615%,–
COc1cccc(C2=CC(c3ccccc3F)n3ncc(C(=O)Nc4ccc(F)cc4)c3N2)c1 (centres undefined),inactive: 2.47%,–
Cc1ccc(Nc2c(-c3cccnc3)nc3ccc(C)cn23)cc1,inactive: -16.1%,–
O=C(CSc1nc2c([nH]c3ccccc32)c(=O)n1-c1ccccc1)Nc1cccc(C(F)(F)F)c1,inactive: -29.6%,–
O=C(NC1CCCCC1)c1ccc(CSc2nc3ccncc3n2Cc2cccc(F)c2)cc1,inactive: 0.0393%,–
CCc1ccc(CNC(=O)c2ccc3c(c2)c(C)c(C)n3Cc2ccccc2)cc1,inactive: 4.43%,–
Cc1ccc(N(C)C(=O)Cn2ncc3c([nH]c4ccccc43)c2=O)cc1C,inactive: 3.14%,–
CCOC(=O)N1CCc2c(sc(NCc3cc(OC)ccc3OC)c2C(=O)Nc2cc(OC)ccc2OC)C1,inactive: -2.96%,–
CCOCCCNC(=O)C1CCN(c2nc3ccc(C)cc3[nH]2)CC1,inactive: 2.68%,–
COC(=O)c1cc(-c2ccc(Cl)cc2)c2c(=O)[nH]c(=O)n(C)c2n1,inactive: -0.0455%,–
COc1ccc(NC(=O)CCc2c(C)nn(-c3ccc(N4CCCC4)nn3)c2C)cc1Cl,inactive: -9.58%,–
COc1ccc(N2CCN(C(=O)Cn3cnc4sc(C)c(S(=O)(=O)N5CCCCC5)c4c3=O)CC2)cc1,inactive: 7.28%,–
Cc1ccc(Cn2c(=O)n(CCc3ccccc3)c(=O)c3sc4ccccc4c32)cc1,inactive: -8.73%,–

SMILES,"activity change, negative = inhibition",Potency
Cc1ccc(NC(=O)CCn2cccn2)c(C)c1,inactive: -2.17%,–
COCCn1c(C)cc(O)c(C(c2ccccc2)N2CCN(c3ccccc3F)CC2)c1=O (centres undefined),inactive: -1.31%,–
CC(Nc1ccc(-c2nc(-c3cccnc3)no2)cc1[N+](=O)[O-])c1ccccc1 (centres undefined),inactive: 0.98%,–
CCS(=O)(=O)c1ccc(C(=O)N2CCN(c3nc4c(OC)ccc(C)c4s3)CC2)cc1,inactive: -6.62%,–
COc1ccccc1-c1nc(CNC(=O)NC2CCCCC2)c(C)o1,inactive: 6.84%,–
COc1cccc(NC(=O)CSc2cc(C)c3ccccc3n2)c1,inactive: -10%,–
O=C(Cn1ncc2ccsc2c1=O)N1CCN(c2ccc(Cl)cc2)CC1,inactive: -0.0585%,–
Cc1ccc(NC(=O)CCn2nc(C)c3c(C)n(-c4ccccc4)nc3c2=O)cc1Cl,inactive: 0.572%,–
CC1CCCCN1Cc1nc2c(c(=O)n(C)c(=O)n2C)n1Cc1ccc(Br)cc1 (centres undefined),inactive: 0.905%,–
Cc1ccc2c(Sc3ccc(Cl)cc3)c(C(=O)N3CCCCC3)[nH]c2c1,inactive: 0.0212%,–
COc1ccc(NC(=O)c2c(-c3ccc(C)cc3)nnc3ccccc23)cc1OC,inactive: -1.87%,–
CC(C)c1ccc(NC(=O)c2cn(C3CCCC3)c(=O)c3c2c2ccccc2n3C)cc1,inactive: -3.77%,–
CCCOc1ccc(NC(=O)CC2C(=O)N(c3cccc(OC)c3)C(=O)N2CCc2ccncc2)cc1 (centres undefined),inactive: -13.2%,–
O=C(Nc1cccc(C(=O)OCc2cc(=O)n3nc(C4CC4)sc3n2)c1)c1ccc(F)cc1,inactive: 2.66%,–
CC(=O)c1ccc(S(=O)(=O)N2CCC(Oc3ccc(-n4cnnn4)cc3)CC2)cc1,inactive: -0.138%,–
O=C(Nc1cccc(Cl)c1)N1Cc2ccccc2Oc2ncccc21,inactive: -17.5%,–
CCc1ccc(NC(=O)CN2C(=O)C(=O)c3ccccc32)cc1,inactive: -18.7%,–
COc1ccc(S(=O)(=O)Nc2ccc(O)c(Sc3nc4ccccc4s3)c2)cc1,inactive: -2.28%,–
CCCC(=O)NC1CC(=O)N(c2ccc3c(c2)OCCO3)C1 (centres undefined),inactive: 0.384%,–
COc1ccccc1C1C(C(N)=O)=C(C)Nc2nc(SCc3ccccc3F)nn21 (centres undefined),inactive: -1.47%,–
Cc1c(C(=O)N(C)C)sc2c1c(=O)n(-c1ccc(Cl)c(Cl)c1)c(=O)n2Cc1ccc(F)cc1,inactive: -1.37%,–
CCOc1ccccc1NC(=O)c1ccc2oc(=O)c(S(=O)(=O)c3ccc(F)cc3)cc2c1,inactive: -3.23%,–
